First the molecules themselves.
B1: CPEB3 Ribozyme (parent)
chain: UAACAGGGGGCCACAGCAGAAGCGUUCACGUCGCAGCCCCUGUCAGAUUCUGGUGAAUCUGCGAAUUCUGCUGUAUAUCUC

The source gives no read counts; variants with many changes may rest on few reads.

Variants of B1 are the subject of the series. The series can be described thus: self-cleavage, relative activity (ratio to wild type); higher = more cleavage; in vitro, sequencing. In a few lines:
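Barcoded CPEB3 ribozyme mutants, produced by rounds of error-prone PCR, self-cleaved while being transcribed with T7 RNA polymerase for 5 hours at 37°C and during a subsequent 15 min DNase I step before EDTA was added. Sequencing of template-switched cDNA on Illumina gave cleaved and total reads, and DNA sequencing assigned barcodes to variants. Each variant's relative activity is its cleaved/total read fraction divided by the unmutated ribozyme's fraction, averaged across three batches. A variant needed a minimum of 5 reads.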
For UAACAGGGGGCCACAGCUGGAGCGUUCACGUCGCAGCCCCUGUCAGAUUCUGGUGAAUCCGCGAAUUCAGCUGUAUAUCUC [A18U A20G U60C U69A], the self-cleavage came out at 0.54.

As for UAACAGGGGGCCACAGCUGAGGCGUUCACGUCGCAGCCCCUGUCAGAUUCUGGUGAACCUGCGAAUACUGCUGUGUAUCUC [A18U A21G U58C U67A A75G], the self-cleavage came to 0.05.

On to UAACAGGGGGCCACAGCUGAGGCGUUCGCGUCGCAGCCCCUGUCAGAUUCUGGUGAAUCUGCGAAUUCUGCUGUAUAUCUC [A18U A21G A28G], for which the self-cleavage came out at 0.16.

Consider UAACAGGGGGCCACAGCUGAGGCGAUCACGUCGGAGCCCCUGUCAGAUUCUGGUGCAUCUGCGAAUUCUGCAGUAUAUCCC [A18U A21G U25A C34G A56C U72A U80C], for which the self-cleavage is 0.02.

As to UAACAGGGGGCCACAGCUGUAGCGUUCACGUCGCAGCCCCCGUCUGAUUCCGGUGAAUCUGCGAAUUCUGCUGUAUAUCUA [A18U A20U U41C A45U U51C C81A], the self-cleavage was 0.06.

Consider UAACAGGGGGCCACAGCUGUAGCGUUCACGUCGCAGCCCCUGUCAGAUUCUGGAGAAUCUGCGAAUUCUGCUGUAUAUCUC [A18U A20U U54A], for which the self-cleavage was found to be 0.09.

Regarding UAACAGGGGGCCACAGCUGGAGCGUUCACGUCGCAGCCCCUGUCAGAUUCUGGUGAAUCUGCGAAUUCCGCAGUACGUCUC [A18U A20G U69C U72A U76C A77G], the self-cleavage was determined as 0.09.

Turning to UAACAGGGGGCCACAGCUGAGGCGUUCACGUCGCACCCCCUGUCAGCUUCUGGCGAAUCUGCGAAUUCUGCUGUAUAUCUC [A18U A21G G36C A47C U54C], the self-cleavage was 0.05.

Turning to UAACAGGGGGCCACAGCUGAGGCGUUCACGUCGCAGCCCCUGUCAGAUUCUGGUGAAUCUGCGAACUCUGCUGCAUAUCUC [A18U A21G U66C U74C], the self-cleavage is 0.37.

UAACAGGGGGCCACAGCUGUAGCGUACACGUCGCAGCCCCAGUCAGAUUCUGGGGAAUGUGCGAAUUCUGCUGUAUAUCUC [A18U A20U U26A U41A U54G C59G]: the self-cleavage turned out to be 0.07.

As for UAACAGGGGGCCACAGCUGAGGCGUUCGUGUCGCAGCCCCUGUCAGAUUCUGGUGGAUCUGCGAAUUCUGCUGUAUAUCUC [A18U A21G A28G C29U A56G], the self-cleavage worked out at 0.08.

In the case of UAACAGGGGGCCACAGCUGAAGCGUUCCCGUCGCGGCCCCCGUCAGAUUCUGGUGAAUCUGCGAAUUCUGCUGUAUAUCUC [A18U A28C A35G U41C], the self-cleavage is 0.25.

In the case of UAACAGGGGGCCACAGCUGUAGCGUUCACGUCGCAGCCCCCGUCAGAUUCUGGUGAAUCUGCGAAUUCUGCUGUAUAUCUC [A18U A20U U41C], the self-cleavage is 0.12.

Take UAACAGGGGGCCACAGCUGAUGCGCUCACGCCGCAGCCCCUGUCAGAUUCUGGUGAAUCUGCGAAUUCAGCUGUAUAUCUC [A18U A21U U25C U31C U69A]: the self-cleavage came to 0.24.

As to UAACAGGGGGCCACAGCUGAUGCGUUCACGUCGCAGCCCCUGUCAGUUUCUGGUGAAUCUGCGAAUUCUGCUGUAUAUCUC [A18U A21U A47U], the self-cleavage worked out at 0.21.

Turning to UAACAGGGGGCCACAGCUGUAGCGUUCACGUCGCAGCCCCUGCCAGAUUCUGGUGAAUCUGCGAAUUCUGCUGUAUAUCCC [A18U A20U U43C U80C], the self-cleavage came to 0.19.

In the case of UAACAGGGGGCCACAGCUGGAGCGUUCACGUCGCAGCCCCUGUCAGAUUCCAGUGAAUCUGCGAAUUCUGCAGUAUAUUUC [A18U A20G U51C G52A U72A C79U], the self-cleavage stood at 0.78.

Regarding UAACAGGGGGCCACAGCUGAGGCGUUCACGUCGCAGCCCCUGUCAGAUUCUGGUGAAUCUUCGAAUUCUGCUGUAUAUCUC [A18U A21G G61U], the self-cleavage is 0.12.

With UAACAGGGGGCCACAGCUGACGCGUUCACGUCGCAGCCCCAGUCUGAUUAUGGUGAAUCUGCGGAUACUGCUGUAUAUCUC [A18U A21C U41A A45U C50A A64G U67A], the self-cleavage turned out to be 0.12.

Regarding UAACAGGGGGCCACAGCUGAUGCGUUCACGUCGCAGCCCCUGUCAGAUCCUGGUGAAUCUGCGAAUUCCGCUGUAUAUCUC [A18U A21U U49C U69C], the self-cleavage turned out to be 0.12.

On to UAACAGGGGGCCACAGCUGUAGCGUUCACGCCGCAGCCCCUGUCAGGUUCUGGUGAAUCUGCGAAUUCCGCUGUAUAUCUC [A18U A20U U31C A47G U69C], for which the self-cleavage is 0.06.

For the variant UAACAGGGGGCCACAGCUGAUGCGUUCACGUCGCAGCCCCUGUCAGAUUCUGGUGAAUCUGCGAAUUCCGCUGUAUAUCUC [A18U A21U U69C], the self-cleavage was determined as 0.14.

In the case of UAACAGGGGGCCACAGCUGUAGCGUUCACGUCGCCGCCCCUGUCAGAUUCUGGUGAAUCUGCGAAUUCUGCUGUAAAUCUC [A18U A20U A35C U76A], the self-cleavage came to 0.19.

For UAACAGGGGGCCACAGCUGUGGCGUUCACGUCGCAGCCCCUGUCAGAUUCUGGUGAAUCUGCGAAUUCUACCGAAUAUCUC [A18U A20U A21G G70A U72C U74A], the self-cleavage was 0.04.

On to UAACAGGGGGCCACAGCUGUAGCGCUCACGUCGCAGCCCCUGUCAGAUUCUAGUGAAUCUGCGAAUUCUGCUGUAUAUCUC [A18U A20U U25C G52A], for which the self-cleavage came to 0.09.

For UAACAGGGGGCCACAGCUGUAGGGUACACGUCGCAGCCCCUGUCAGAUUCUGGUGAAUCUGCGAAUUCUGCUGUAUAUCUC [A18U A20U C23G U26A], the self-cleavage was 0.23.

As for UAACAGGGGGCCACAGCUGAGGCGUUCACGUCGCAGCCCCUGUCAGUUUCUGGUGGAUCGGCGAAUUCUGCUGUAUAUCUC [A18U A21G A47U A56G U60G], the self-cleavage came to 0.14.

With UAACAGGGGGCCACAGCUGUAGCGUUCACGUCGCAGCCCCUGACAGAUUCUGGUGAAUCUGCGAAUUCUGCUGUAUAUCUC [A18U A20U U43A], the self-cleavage was 0.4.

As to UAACAGGGGGCCACAGCUGAGGCGUUCACGUCGCAGCCCCUGUCAGAUUCUGGUGAAUCUGCGAAUUCUGCAGUAUAUCUC [A18U A21G U72A], the self-cleavage worked out at 0.14.

Take UAACAGGGGGCCACAGCUGAGGCGUUCACGUCGCAGCCCCUGUCAGAUUCUGGUGAAUCUGCGAAUUCUGCCGUAUAUCUC [A18U A21G U72C]: the self-cleavage is 0.43.

Turning to UAACAGGGGGCCACAGCUGAGGCGUUCACGUCGCAGCCCCUGCCAGAUUCUGGUGAGUCUGCGAAUUCUGCUAUAUAUCUC [A18U A21G U43C A57G G73A], the self-cleavage is 0.25.

Take UAACAGGGGGCCACAGCUGUAGCGUUCACGUCGCAGCCCCGGUCAGAUUCUGGUAAAUCUGCGGAUUCUGCUGUAUAUCUC [A18U A20U U41G G55A A64G]: the self-cleavage came out at 0.03.

UAACAGGGGGCCACAGCUGAGGCGUUCACGUCGCGGCCCCCGUCAGAUUCUGGUGAAUCCGCGAAUUCUGCUGUUUAUCUC [A18U A21G A35G U41C U60C A75U]: the self-cleavage worked out at 0.22.

Regarding UAACAGGGGGCCACAGCUGAGGCGUUCACGUCGCAGCCCCUGUCAGAUUCUGGUGAAUCUGCGAAUUCUGCUGUAUAUAUC [A18U A21G C79A], the self-cleavage came to 0.08.

The values above are taken from the RNAGym collection of RNA variant scans (doi:10.1093/nar/gkz1192).
